Reference: PubChem BioAssay AID1345083 (National Center for Advancing Translational Sciences (NCATS), 2018)
Among all 94,000 compounds or so, about 6,200 (6.6%) were called active. This list was built around the results that the source calls inconclusive (neither active nor inactive); the mix of calls is not that of the screen. Calls follow the shape of the dose curve; as a rule, active = well fitted inhibition curve with a large enough effect; inconclusive = small, poorly fitted or top-dose-only effect; inactive = flat fitted curve, though single readings scatter. Where the call is inconclusive, the potency comes from a doubtful curve fit.

Test: Cytotoxic Profiling in HEK 293 Cell Line of Diverse Libraries Using Quantitative High-Throughput Screening; also: nearly all actives have a fitted effect of over 60% in size
Details: HEK 293 viability, ATP luminescence (CellTiter-Glo), 48-72 h; series mostly up to 115 µM
Outline: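 ATP-coupled CellTiter-Glo luminescence served as viability read-out, recorded 10 min after reagent addition at room temperature. HEK 293 cells, 250 cells/well, had been incubated with pintool-transferred compound for 48 or 72 hr at 37 degree Celsius.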
Potency is read from the fitted curve at half-maximal effect; tags tell the direction and shape of the fitted curve.

SMILES | Potency
O=C(NCC1CC1)c1ccc(Cn2ccn3nc4c(c3c2=O)CCCC4)cc1 | inconclusive: 89.1 µM [inhibitor, partial curve, poor fit]
Cc1ccc(C)c(N2CCN(C(=O)c3cc4n(n3)CC(c3ccc(Cl)cc3)OC4)CC2)c1 (stereo unspecified) | active: 44.7 µM
CSc1ccc(-c2cccc(CN3CCC(N[S+](=O)([O-])c4c(C)noc4C)CC3)c2)cc1 | inconclusive: 22.4 µM [inhibitor, full curve, poor fit]
Fc1ccccc1-c1cnc2n[nH]c(-c3ccccc3)c2n1 | active: 112 µM
O=C1CC(c2noc(-c3ccc(Cl)cc3)n2)CN1c1ccc(F)cc1 (stereo unspecified) | inconclusive: 89.1 µM [inhibitor, single point]
CCCCOc1ccc(-c2nc(C3CC(=O)N(c4ccc(OC)cc4)C3)no2)cc1 (stereo unspecified) | inactive
O=C(CC1CCCC1)NC1CCN(c2cnn(Cc3ccccc3)c(=O)c2)CC1 | inconclusive: 89.1 µM [inhibitor, single point]
CS(=O)(=O)N1CCN(c2ccc3nnc(C4CC4)n3n2)CC1 | inactive
COc1ccc(NC(=O)Cc2c[nH]c3ncc(-c4ccccc4)cc23)cn1 | inconclusive: 70.8 µM [inhibitor, partial curve]
O=C(NCCc1nc(-c2cccnc2)no1)c1coc2c1C(=O)CCC2 | inconclusive: 112 µM [inhibitor, partial curve, poor fit]
CCOc1cc(=O)n2c(c1C(=O)Nc1ccccc1C(=O)OC)CCCC2 | inconclusive: 22.4 µM [inhibitor, full curve]
CC(C)Oc1ccc(C(=O)N2[C@@H]3CC[C@H]2CC(NC(=O)c2ccc(F)cc2)C3)cc1 (stereo partly specified) | inconclusive: 50.1 µM [inhibitor, partial curve, poor fit]
CCc1ccc(-c2cc3n(n2)CCCN(C(=O)CCc2cc(Cl)no2)C3)cc1 | inconclusive: 63.1 µM [inhibitor, partial curve, poor fit]
Cn1ccnc1C(=O)N1CCN(C(=O)N2CC3CC(C2)[C@H]2CCCC(=O)N2C3)CC1 (stereo partly specified) | inactive
Cc1cccc(-c2cccc(CN3CCC(NC(=O)c4ccc(Cl)cc4)CC3)c2)c1 | inactive
COc1ccc(-c2nccc3c(=O)cc(-c4cccnc4)oc23)cc1OC | inactive
Cn1ncc2c(C(=O)NCCc3ccc(Cl)cc3)cc(-c3ccc([S+](C)(=O)[O-])cc3)nc21 | inconclusive: 50.1 µM [inhibitor, partial curve, poor fit]
CCOC(=O)[C@@H]1CN(C(=O)Cc2ccc(OC)cc2)[C@H]2c3ccccc3O[C@@H]12 | inconclusive: 50.1 µM [inhibitor, partial curve, poor fit]
COc1ccccc1CNC(=O)CC1=C2CCCCC2N(C)C1=O (stereo unspecified) | inactive
Cc1cnc(C)n1C1CCN(S(=O)(=O)c2ccc(C#N)cc2)CC1 | inactive
O=C(NCCN1C(=O)C2(CCCCC2)C1c1ccccc1)C1CC=CC1 (stereo unspecified) | inconclusive: 50.1 µM [inhibitor, partial curve, poor fit]

SMILES | Potency
Fc1ccc(-c2[nH]ncc2CN(Cc2cccnc2)Cc2cccnc2)cc1 | inconclusive: 89.1 µM [inhibitor, partial curve, poor fit]
COc1ccccc1Cn1c(=O)c(C(=O)NCc2ccc3c(c2)OCO3)nc2cccnc21 | inconclusive: 25.1 µM [inhibitor, full curve]
COc1ccc(CN2CCc3nc(C(=O)Nc4ccc(Cl)cc4)oc3CC2)cn1 | inconclusive: 89.1 µM [inhibitor, partial curve, poor fit]
O=C(NCCc1ccccn1)C1CCc2sc(C(=O)N3CCCCC3)cc2C1 (stereo unspecified) | inactive
CC(C)N1C(=O)CO[C@H]2CCN(CCCc3ccccc3)CC[C@@H]21 | inconclusive: 89.1 µM [inhibitor, partial curve]
Cc1ccc(CN2CCc3oc(C)c(C(=O)N(C)CC(=O)N4CCCC4)c3C2)cc1 | inconclusive: 89.1 µM [inhibitor, single point]
CC(C)CCN1CCc2nc(C(C)C)nc(-c3ccc(O)cc3)c2C1 | inactive
O=C(Nc1ccc(F)c(Cl)c1)N1CCCC(Cn2c(C3CC3)nc3cccnc32)C1 (stereo unspecified) | inconclusive: 44.7 µM [inhibitor, partial curve, poor fit]
C=CCNC(=O)[C@@H]1C[C@@H](O)CN1C1CCN(C(=O)c2cccc(OC)c2)CC1 | inactive
CN1CC(=O)N(C2CCCC2)Cc2c1ncnc2N1CCCC1 | inactive
Cc1cccc(N2Cc3c(NCCCc4ccccc4)ncnc3N(C)CC2=O)c1 | inconclusive: 56.2 µM [inhibitor, partial curve, poor fit]
CCn1nccc1C(=O)N1CCCC(n2cc(-c3nc(-c4ccccc4)no3)nn2)C1 (stereo unspecified) | inconclusive: 50.1 µM [inhibitor, partial curve, poor fit]
O=C(Cc1cccc(Cl)c1)N1CCC(C(=O)N2CCC(c3ccccc3)CC2)CC1 | inconclusive: 50.1 µM [inhibitor, partial curve, poor fit]
CCOc1ccccc1NC(=O)N1CCC2(CC1)CC(Cc1nc(-c3ccncc3)no1)CCO2 (stereo unspecified) | inconclusive: 50.1 µM [inhibitor, partial curve, poor fit]
COc1cccc(OC)c1CN1CCC2(CC1)CC(O)CCO2 (stereo unspecified) | inactive
CCOC(=O)C1=C(C)N=C2SC=C(CC(=O)N3CCOCC3)N2C1c1cccc(Cl)c1 (stereo unspecified) | inconclusive: 50.1 µM [inhibitor, partial curve, poor fit]
CC(C)c1noc(-c2cn(C3CCCN(C(=O)c4ccc(F)c(Cl)c4)C3)nn2)n1 (stereo unspecified) | inconclusive: 31.6 µM [inhibitor, full curve]
Cc1cc(C)cc(-c2ccc(CN3CCCC3C(=O)N3CCN(Cc4ccccc4)CC3)cc2)c1 (stereo unspecified) | active: 20 µM
Cc1noc(C2CCCCN2C(=O)c2ccc(-c3ccccc3Cl)o2)n1 (stereo unspecified) | inconclusive: 89.1 µM [inhibitor, single point]
O=C(Cc1c[nH]c2ncc(-c3ccsc3)cc12)NCc1cccnc1 | inconclusive: 79.4 µM [inhibitor, partial curve]
